Here are results for 77 variants from a collection of fitness landscapes (doi:10.1016/j.celrep.2020.107928).

B1: Caulobacter ParB omega fusion; a variant is named by its letters at X, in order, B8GW30 (parent)
chain: MESVVVGEPGMSEGRRGLGRGLSALLGEVDAAPAQAPGEQLGGSREAPIEILQRNPDQPRRTFREEDLEDLSNSIREKGVLQPILVRPSPDTAGEYQIVAGERAWRAAQRAGLKTVPIMVRELDDLAVLEIGIIENVQRADLNVLEEALSYKVLMEKFERTQENIAQTIGKSXSHVANXMRLLXLPDEVQSYLVSGELTAXHARAIAAAADPVALAKQIIEGGLSVRETEALARKAPNLSAGKSKGGRPPRVKDTDTQALESDLSSVLGLDVSIDHRGSTGTLTITYATLEQLDDLCNRLTRGI

Whole data set: some 81,000 sequences, median “one-hybrid fitness for binding NBS DNA” near -0.1, cut for the highest 2% near 0.36. Some of the results follow. A value given as a limit tells only on which side of the number the result lay.

The variants in this test derive from B1. Description: one-hybrid fitness for binding NBS DNA (the Noc-binding site; scaled: cognate 1, non-cognate 0); higher = stronger binding. As to conditions: with NBS DNA site. An outline of the steps:
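The reporter was HIS3, with the binding site 19 bp from the promoter, in E. coli USO used for bacterial one-hybrid selection of Caulobacter ParB libraries with four specificity codons randomised. Growth was on M9 lacking histidine, with 0.1 mM IPTG and 5 mM 3-AT, for 48 hours at 37°C. Illumina sequencing covered plasmids before and after selection; three replicate libraries were pooled and variants with under 10 reads dropped. A fitness score is the log change in variant-to-wild-type read ratio, rescaled to the cognate and non-cognate references.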
In the case of QLAN, the “one-hybrid fitness for binding NBS DNA” value was no more than 0.2.
In the case of LRTS, the “one-hybrid fitness for binding NBS DNA” value is no more than 0.2.
With AMMW the figure was no more than 0.2; with KGWG, no more than 0.2; with MHDT, no more than 0.2.
As for FHRA, the “one-hybrid fitness for binding NBS DNA” value was no more than 0.2.
With SGPR the figure was no more than 0.2; with SFLQ, no more than 0.2; with GSSM, no more than 0.2.
As for RGHS, the “one-hybrid fitness for binding NBS DNA” value was no more than 0.2.
With FGPD the figure was no more than 0.2.
On to AIIN, for which the “one-hybrid fitness for binding NBS DNA” value was no more than 0.2.
Turning to VISL, the “one-hybrid fitness for binding NBS DNA” value was no more than 0.2.
Turning to SHHM, the “one-hybrid fitness for binding NBS DNA” value is no more than 0.2.
To RTGF belongs no more than 0.2; to YYNA, no more than 0.2.
To GPYW belongs no more than 0.2.
To DDNC belongs no more than 0.2; to HFHG, no more than 0.2.
For the variant QLYM, the “one-hybrid fitness for binding NBS DNA” value was no more than 0.2.
Take MDMM: the “one-hybrid fitness for binding NBS DNA” value was no more than 0.2.
Consider ECRR, for which the “one-hybrid fitness for binding NBS DNA” value turned out to be 0.234.
With HNPG the figure was no more than 0.2; with ACLC, no more than 0.2.
With KRYI the figure was no more than 0.2.
With WGSR the figure was no more than 0.2.
Take QDAI: the “one-hybrid fitness for binding NBS DNA” value was no more than 0.2.
To RHEP belongs no more than 0.2; to KAML, no more than 0.2; to VQIG, no more than 0.2.
With DVEG the figure was no more than 0.2.
With NVRV the figure was no more than 0.2.
For the variant MVDL, the “one-hybrid fitness for binding NBS DNA” value was no more than 0.2.
In the case of EQCS, the “one-hybrid fitness for binding NBS DNA” value was no more than 0.2.
On to PTYP, for which the “one-hybrid fitness for binding NBS DNA” value was no more than 0.2.
As to CSCS, the “one-hybrid fitness for binding NBS DNA” value was no more than 0.2.
In the case of RHQR, the “one-hybrid fitness for binding NBS DNA” value was 0.448.
With KCNF the figure was no more than 0.2; with VLRL, no more than 0.2; with VDIF, no more than 0.2.
To PMSV belongs no more than 0.2; to HPYV, no more than 0.2.
To VGVC belongs no more than 0.2; to LCFC, no more than 0.2.
Take ERAY: the “one-hybrid fitness for binding NBS DNA” value was no more than 0.2.
With SARG the figure was no more than 0.2; with NLQL, no more than 0.2; with REVR, no more than 0.2.
With RFAS the figure was no more than 0.2; with FHPL, no more than 0.2; with FLPE, no more than 0.2.
In the case of PMTL, the “one-hybrid fitness for binding NBS DNA” value was no more than 0.2.
With TTRV, the “one-hybrid fitness for binding NBS DNA” value was no more than 0.2.
With LECA the figure was no more than 0.2; with RRMW, no more than 0.2; with KGWY, no more than 0.2.
As to EPYK, the “one-hybrid fitness for binding NBS DNA” value is no more than 0.2.
For the variant DITR, the “one-hybrid fitness for binding NBS DNA” value was no more than 0.2.
With MSDC the figure was no more than 0.2.
Consider NVHL, for which the “one-hybrid fitness for binding NBS DNA” value was no more than 0.2.
With YTGV the figure was no more than 0.2; with YKMS, no more than 0.2; with SPEK, no more than 0.2.
Turning to QFSM, the “one-hybrid fitness for binding NBS DNA” value was no more than 0.2.
To ARHP belongs no more than 0.2; to NFQF, no more than 0.2; to GQYG, no more than 0.2.
As to VRAK, the “one-hybrid fitness for binding NBS DNA” value was no more than 0.2.
Take CRSE: the “one-hybrid fitness for binding NBS DNA” value was no more than 0.2.
For PVER, the “one-hybrid fitness for binding NBS DNA” value is no more than 0.2.
To TFTT belongs no more than 0.2; to YFNR, no more than 0.2.
With KRRS the figure was 0.549; with AQQY, no more than 0.2.
To QTMT belongs 0.551; to QISI, no more than 0.2.
For RPRF, the “one-hybrid fitness for binding NBS DNA” value is no more than 0.2.
